The values below come from PMC4336329 (PLoS ONE, 2015).

Among all 310,000 compounds or so, about 14,000 (4.5%) showed an effect of 50% or more. The effect is printed as a negative number. Some of the results follow.
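Also: peak tail current of the secondary pulse compared with the same well before compound.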

The target of the assay is human ether-à-go-go-related gene (hERG) potassium channel (human, UniProt Q12809). Kind of assay: primary screen, population patch clamp on CHO cells stably expressing hERG.
Chain of human ether-à-go-go-related gene (hERG) potassium channel (Q12809 whole entry, looked up): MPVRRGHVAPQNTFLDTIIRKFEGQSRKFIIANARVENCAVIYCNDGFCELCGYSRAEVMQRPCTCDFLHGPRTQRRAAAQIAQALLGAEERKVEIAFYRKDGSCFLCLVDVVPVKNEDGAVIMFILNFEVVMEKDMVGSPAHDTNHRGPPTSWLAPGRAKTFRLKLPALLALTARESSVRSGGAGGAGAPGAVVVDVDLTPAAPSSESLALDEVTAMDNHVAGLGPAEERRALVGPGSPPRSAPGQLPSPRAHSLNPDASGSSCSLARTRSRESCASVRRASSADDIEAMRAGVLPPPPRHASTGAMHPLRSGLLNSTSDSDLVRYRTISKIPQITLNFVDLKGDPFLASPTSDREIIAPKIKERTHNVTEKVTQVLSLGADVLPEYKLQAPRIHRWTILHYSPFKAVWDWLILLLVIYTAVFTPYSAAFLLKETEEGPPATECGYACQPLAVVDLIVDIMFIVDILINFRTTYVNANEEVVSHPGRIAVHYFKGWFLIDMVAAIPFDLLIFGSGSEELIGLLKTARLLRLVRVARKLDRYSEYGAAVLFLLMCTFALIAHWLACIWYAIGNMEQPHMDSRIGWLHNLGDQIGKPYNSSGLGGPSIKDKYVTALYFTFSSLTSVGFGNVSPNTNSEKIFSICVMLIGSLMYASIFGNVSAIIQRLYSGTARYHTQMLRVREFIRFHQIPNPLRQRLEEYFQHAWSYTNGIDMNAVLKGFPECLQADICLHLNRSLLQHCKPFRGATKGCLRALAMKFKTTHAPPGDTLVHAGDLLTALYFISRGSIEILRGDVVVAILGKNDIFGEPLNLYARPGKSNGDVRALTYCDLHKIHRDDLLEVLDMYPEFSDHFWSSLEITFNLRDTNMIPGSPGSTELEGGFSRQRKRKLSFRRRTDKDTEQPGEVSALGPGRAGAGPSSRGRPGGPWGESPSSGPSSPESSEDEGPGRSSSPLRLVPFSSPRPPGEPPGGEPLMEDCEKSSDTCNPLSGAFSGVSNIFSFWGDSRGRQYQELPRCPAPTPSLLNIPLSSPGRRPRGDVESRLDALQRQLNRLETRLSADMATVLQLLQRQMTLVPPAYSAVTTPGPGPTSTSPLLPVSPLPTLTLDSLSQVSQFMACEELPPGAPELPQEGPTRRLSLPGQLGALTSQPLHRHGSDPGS
With `Cc1cccn2cc(CNC(=O)c3ccc(Br)o3)nc12`, the “hERG current change (%, negative = inhibition) at 10uM” value is reported as 1.03%.
Then `O=C(Nc1ccc(NC(=O)c2ccc3c(c2)OCO3)cc1)c1cccc(Cl)c1`, with 24.9%.
As for `COc1cc(/C=N/NC(=O)c2cccc(S(=O)(=O)N3CCOCC3)c2)cc(OC)c1O`, the figure is -9.08%; as for `CCOC(=O)C(C)n1cnc2sc(C)c(C)c2c1=O` (stereo not shown), 17%.
Then `Cc1ccc(COn2c(-c3ccc(Cl)cc3Cl)nc3ncccc32)cc1`, with -40%.
As for `Cc1nn(Cc2ccccc2Cl)c(C)c1C(=O)N1CCN(c2ccccc2)CC1`, the “hERG current change (%, negative = inhibition) at 10uM” value is listed as -58.6%.
As for `O=C1OCCC1Sc1ncnc2sc3c(c12)CCC3` (stereo not shown), the figure is -7.55%; as for `CCCNc1nc(C)nc2c1cnn2CCc1ccccc1`, -12.8%; as for `C#CCOCCOCCOCCNc1nc(N2CCOCC2)nc(N2CCN(C(=O)[C@H]([C@@H](C)O)n3cc(CCCC[NH3+])nn3)CC2)n1.[Cl-]`, 13.8%.
In the case of `Cc1ccc2[nH]c(=O)c(NC(N)=S)nc2c1`, the “hERG current change (%, negative = inhibition) at 10uM” value turned out to be 14%.
As for `COc1ccc(OCC(=O)Nc2ccc(S(=O)(=O)Nc3cc(C)nc(C)n3)cc2)cc1`, the figure is 21%; as for `Cc1cc(OCC(=O)NC2CC(C)(C)NC(C)(C)C2)c2c(C)c(C)c(=O)oc2c1`, 15.7%; as for `Cc1ccc(C(=O)Nc2ccc(N3CCN(C)CC3)cc2)c(Cl)c1`, -8.37%.
Then `COc1ccccc1CNS(=O)(=O)c1ccc2c(c1)oc(=O)n2C`, with -16.7%.
Consider `CN(C)c1ccc(N/C=C/C(=O)C(F)(F)F)cc1`, for which the “hERG current change (%, negative = inhibition) at 10uM” value is 19%.
As for `CCOc1ccc(NC(=O)c2cccc3ccccc23)cc1`, the figure is 14.4%.
On to `CCC(C)(C)NC(=O)C(c1ccc(F)cc1)N(Cc1ccccc1)C(=O)c1cnccn1` (stereo not shown), for which the “hERG current change (%, negative = inhibition) at 10uM” value is -37.6%.
As for `CCOC(=O)c1c(NC(=O)CSc2nc3ccccc3[nH]2)sc2c1CC(C)(C)NC2(C)C`, the “hERG current change (%, negative = inhibition) at 10uM” value was -45.2%.
Then `CCOc1ccc(C(C)=O)cc1CN1C(=O)NC(C)(C2CC2)C1=O` (stereo not shown), with 11.8%; and `O=[N+]([O-])c1ccc(NCCCN2CCOCC2)c2ncccc12`, with 31.6%; and `CC1(C)Cc2nc3sc4c(N(CCO)CCO)ncnc4c3cc2CO1`, with 3.56%.
As for `CCC(=O)c1ccc(NC(C)=O)cc1O`, the “hERG current change (%, negative = inhibition) at 10uM” value came to 4.42%.
Then `COCc1ccc(CN2CCCC(CCC(=O)NCc3ccc(C)o3)C2)o1` (stereo not shown), with -16.7%; and `CN(c1ccccc1)S(=O)(=O)c1cccc(C(=O)N2CCN(c3ccccn3)CC2)c1`, with -35.8%; and `CCc1ccccc1NC(=O)c1ccc(-c2csc(C)n2)cc1`, with -12.4%.
As for `CCn1cc(C(=O)NCCc2ccccc2C)c(=O)c2ccc(C)nc21`, the figure is 21.1%.
As for `O=C(O)C1C2CC3C(OC(=O)C31)C2Cl` (stereo not shown), the “hERG current change (%, negative = inhibition) at 10uM” value is listed as 15%.
As for `COc1ccc(C(=O)N2CCCC2(C#N)c2ccccc2)cc1[N+](=O)[O-]` (stereo not shown), the figure is -41%; as for `Cc1cc(C(F)F)nn1CC(=O)NC1C(=O)N2C(C(=O)O)=C(CSc3nnnn3C)CSC12` (stereo not shown), -2.04%.
Then `CC1(c2cccc([N+](=O)[O-])c2)CC(C)(C)N(C(=O)c2ccccc2)c2ccccc21` (stereo not shown), with 12.8%; and `CCC(=O)N1CCN(c2nc(-c3ccccc3)c3c(c2C#N)CCCC3)CC1`, with -19.8%.
Then `O=C(Cc1ccccc1)NNC(=O)c1cccs1`, with 5.31%; and `Cc1cccc(C(=O)Oc2ccc(/C=N/NC(=O)Cc3ccc([N+](=O)[O-])cc3)cc2)c1`, with 21.8%; and `COc1ccc(CCNC(=O)N2c3ccccc3Sc3ccccc32)cc1`, with 3.44%.
In the case of `COc1ccccc1C(=O)N/C(=C\c1ccc(Br)cc1)C(=O)NCC(=O)O`, the “hERG current change (%, negative = inhibition) at 10uM” value was found to be 1.78%.
Then `COc1ccc(N2CCN(CC(O)COc3ccccc3[N+](=O)[O-])CC2)cc1.Cl` (stereo not shown), with -44.1%; and `COc1cccc(C(=O)NCCSCc2c(F)cccc2Cl)c1`, with -29%; and `Cc1noc(C)c1C(=O)Nc1nc(C23CC4CC(CC(C4)C2)C3)cs1`, with 0.55%.
Then `CC1=NCCN1S(=O)(=O)c1c(C(C)C)cc(C(C)C)cc1C(C)C`, with -3.48%; and `CN(C)c1ccc(/C=C2/C=C(c3ccc4c(c3)CCCC4)OC2=O)cc1`, with 11.1%.
Then `Cc1ccc(NC(=O)CSc2nnc(Cn3cnc4ccccc43)o2)cc1`, with -2.8%.
As to `CCOc1ccc(CNC(=O)C2CCC(=O)N2C2CCCC2)cc1OC` (stereo not shown), the “hERG current change (%, negative = inhibition) at 10uM” value worked out at 2.3%.
Then `Cc1ccc2c(c1)c1c3n2CCNC3CCC1.Cl` (stereo not shown), with -5.84%.
